Experimental data reported in the supplement of paper PMC8728848.
Some of the results follow.

Experiments:
Assay in all cases: glycan array binding signal (z-score within array); higher = stronger binding
Settings in all cases: glycan notation: IUPAC condensed, linker removed
[1] = target: Fuc(a1-2)[GalNAc(a1-3)]Gal(b1-3)GalNAc(b1-3)Gal(a1-4)Gal(b1-4)Glc
In short: (§1)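 Glycan array data came from 3228 arrays in the Consortium for Functional Glycomics database, and only arrays with an available protein sequence were kept. Glycan names were put into IUPAC-condensed notation, and columns mapping to the same glycan were averaged. The binding signal is a within-array Z-score, averaged across arrays of one protein sequence run at different concentrations or buffers and across linkers. A negative Z-score can be read as non-binding.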

[2] = target: Fuc(a1-2)[GalNAc(a1-3)]Gal(b1-3)GlcNAc
In short: as §1

[3] = target: Fuc(a1-2)[GalNAc(a1-3)]Gal(b1-3)GlcNAc(b1-2)Man(a1-3)[Fuc(a1-2)[GalNAc(a1-3)]Gal(b1-3)GlcNAc(b1-2)Man(a1-6)]Man(b1-4)GlcNAc(b1-4)GlcNAc
In short: as §1

[4] = target: Fuc(a1-2)[GalNAc(a1-3)]Gal(b1-3)GlcNAc(b1-2)Man(a1-3)[Fuc(a1-2)[GalNAc(a1-3)]Gal(b1-3)GlcNAc(b1-2)Man(a1-6)]Man(b1-4)GlcNAc(b1-4)[Fuc(a1-6)]GlcNAc
In short: as §1

[5] = target: Fuc(a1-2)[GalNAc(a1-3)]Gal(b1-3)GlcNAc(b1-3)GalNAc
In short: as §1

[6] = target: Fuc(a1-2)[GalNAc(a1-3)]Gal(b1-3)GlcNAc(b1-6)GalNAc
In short: as §1

[7] = target: Fuc(a1-2)[GalNAc(a1-3)]Gal(b1-4)Glc
In short: as §1

[8] = target: Fuc(a1-2)[GalNAc(a1-3)]Gal(b1-4)GlcNAc
In short: as §1

[9] = target: Fuc(a1-2)[GalNAc(a1-3)]Gal(b1-4)GlcNAc(b1-2)Man
In short: as §1

[10] = target: Fuc(a1-2)[GalNAc(a1-3)]Gal(b1-4)GlcNAc(b1-2)Man(a1-3)[Fuc(a1-2)[GalNAc(a1-3)]Gal(b1-4)GlcNAc(b1-2)Man(a1-6)]Man(b1-4)GlcNAc(b1-4)GlcNAc
In short: as §1

[11] = target: Fuc(a1-2)[GalNAc(a1-3)]Gal(b1-4)GlcNAc(b1-2)Man(a1-3)[Fuc(a1-2)[GalNAc(a1-3)]Gal(b1-4)GlcNAc(b1-2)Man(a1-6)]Man(b1-4)GlcNAc(b1-4)[Fuc(a1-6)]GlcNAc
In short: as §1

[12] = target: Fuc(a1-2)[GalNAc(a1-3)]Gal(b1-4)GlcNAc(b1-3)Gal(b1-4)GlcNAc
In short: as §1

[13] = target: Fuc(a1-2)[GalNAc(a1-3)]Gal(b1-4)GlcNAc(b1-3)Gal(b1-4)GlcNAc(b1-3)Gal(b1-4)GlcNAc
In short: as §1

[14] = target: Fuc(a1-2)[GalNAc(a1-3)]Gal(b1-4)GlcNAc(b1-3)GalNAc
In short: as §1

[15] = target: Fuc(a1-2)[GalNAc(a1-3)]Gal(b1-4)GlcNAc(b1-3)[Fuc(a1-2)[GalNAc(a1-3)]Gal(b1-4)GlcNAc(b1-6)]GalNAc
In short: as §1

[16] = target: Fuc(a1-2)[GalNAc(a1-3)]Gal(b1-4)GlcNAc(b1-6)GalNAc
In short: as §1

[17] = target: Fuc(a1-2)[GalNAc(a1-3)]Gal(b1-4)[Fuc(a1-3)]GlcNAc
In short: as §1

[18] = target: Fuc(a1-2)[GalNAc(a1-3)]Gal(b1-4)[Fuc(a1-3)]GlcNAc(b1-3)GalNAc
In short: as §1

[19] = target: Fuc(a1-2)[GalNAc(a1-4)]Gal(b1-4)GlcNAc
In short: as §1

[20] = target: Fuc(a1-2)[GalNAc(b1-3)]Gal
In short: as §1

[21] = target: Fuc(a1-3)GlcNAc
In short: as §1

[22] = target: Fuc(a1-3)[Gal(b1-4)]Glc6S
In short: as §1

[23] = target: Fuc(a1-3)[Gal(b1-4)]GlcNAc
In short: as §1

[24] = target: Fuc(a1-3)[Gal(b1-4)]GlcNAc(b1-2)Man
In short: as §1

[25] = target: Fuc(a1-3)[Gal(b1-4)]GlcNAc(b1-2)Man(a1-3)[Fuc(a1-3)[Gal(b1-4)]GlcNAc(b1-2)Man(a1-6)]Man(b1-4)GlcNAc(b1-4)GlcNAc
In short: as §1

[26] = target: Fuc(a1-3)[Gal(b1-4)]GlcNAc(b1-2)Man(a1-3)[Fuc(a1-3)[Gal(b1-4)]GlcNAc(b1-2)Man(a1-6)]Man(b1-4)GlcNAc(b1-4)[Fuc(a1-6)]GlcNAc
In short: as §1

[27] = target: Fuc(a1-3)[Gal(b1-4)]GlcNAc(b1-3)Gal(b1-3)[Fuc(a1-4)]GlcNAc
In short: as §1

[28] = target: Fuc(a1-3)[Gal(b1-4)]GlcNAc(b1-3)Gal(b1-4)[Fuc(a1-3)]GlcNAc
In short: as §1

[29] = target: Fuc(a1-3)[Gal(b1-4)]GlcNAc(b1-3)Gal(b1-4)[Fuc(a1-3)]GlcNAc(b1-3)Gal(b1-4)[Fuc(a1-3)]GlcNAc
In short: as §1

[30] = target: Fuc(a1-3)[Gal(b1-4)]GlcNAc(b1-3)GalNAc
In short: as §1

[31] = target: Fuc(a1-3)[Gal(b1-4)]GlcNAc(b1-4)Gal(b1-4)[Fuc(a1-3)]GlcNAc
In short: as §1

[32] = target: Fuc(a1-3)[Gal(b1-4)]GlcNAc(b1-4)Gal(b1-4)[Fuc(a1-3)]GlcNAc(b1-4)Gal(b1-4)[Fuc(a1-3)]GlcNAc
In short: as §1

[33] = target: Fuc(a1-3)[Gal(b1-4)]GlcNAc(b1-6)GalNAc
In short: as §1

[34] = target: Fuc(a1-3)[Gal(b1-4)]GlcNAc(b1-6)[Gal(b1-3)GlcNAc(b1-3)]Gal(b1-4)Glc
In short: as §1

[35] = target: Fuc(a1-3)[Gal(b1-4)]GlcNAc(b1-6)[Neu5Ac(a2-3)Gal(b1-3)]GalNAc
In short: as §1

[36] = target: Fuc(a1-3)[Gal(b1-4)]GlcNAc6S
In short: as §1

[37] = target: Fuc(a1-3)[Gal3S(b1-4)]Glc
In short: as §1

B1: PpFlo2 (Pichia pastoris) (protein)
chain: MGSSHHHHHHSSGLVPRGSHMDDSGNGDNSDTAYGCDITTNAVDGFDATIYQYNANDLRLIRDPTFMSTGYLGRNVLNKISGVTVPGFNIWNPSSRTATVYGVKNVNYYNMVLELKGYFKADVSGDYKLTLSHIDDSSMLFFGKETAFKCCDAGSIPLNEAPTDYSLFTIKPSNQVNSEVISATQYLEAGKYYPVRIVFVNALERARFDFKLTIPSGAVLDDFQNYIYQFGDLDENSCHE
- glycan array binding signal (z-score) [1]: -0.273
- glycan array binding signal (z-score) [2]: -0.297
- glycan array binding signal (z-score) [3]: -0.287
- glycan array binding signal (z-score) [4]: -0.284
- glycan array binding signal (z-score) [5]: -0.292
- glycan array binding signal (z-score) [6]: -0.275
- glycan array binding signal (z-score) [7]: -0.302
- glycan array binding signal (z-score) [8]: -0.3
- glycan array binding signal (z-score) [9]: -0.27
- glycan array binding signal (z-score) [10]: -0.231
- glycan array binding signal (z-score) [11]: -0.3
- glycan array binding signal (z-score) [12]: -0.298
- glycan array binding signal (z-score) [13]: -0.2
- glycan array binding signal (z-score) [14]: -0.295
- glycan array binding signal (z-score) [15]: -0.07
- glycan array binding signal (z-score) [16]: -0.27
- glycan array binding signal (z-score) [17]: -0.291
- glycan array binding signal (z-score) [18]: -0.221
- glycan array binding signal (z-score) [19]: -0.3
- glycan array binding signal (z-score) [20]: -0.278
- glycan array binding signal (z-score) [21]: -0.292
- glycan array binding signal (z-score) [22]: -0.301
- glycan array binding signal (z-score) [23]: -0.296
- glycan array binding signal (z-score) [24]: -0.276
- glycan array binding signal (z-score) [25]: -0.288
- glycan array binding signal (z-score) [26]: -0.301
- glycan array binding signal (z-score) [27]: -0.217
- glycan array binding signal (z-score) [28]: -0.04
- glycan array binding signal (z-score) [29]: -0.238
- glycan array binding signal (z-score) [30]: -0.287
- glycan array binding signal (z-score) [31]: 0.371
- glycan array binding signal (z-score) [32]: -0.228
- glycan array binding signal (z-score) [33]: -0.298
- glycan array binding signal (z-score) [34]: -0.249
- glycan array binding signal (z-score) [35]: -0.343
- glycan array binding signal (z-score) [36]: -0.297
- glycan array binding signal (z-score) [37]: -0.263
